Reference: PubChem BioAssay AID360 (National Center for Advancing Translational Sciences (NCATS), 2006)
Among all 48,000 compounds or so, about 550 (1.1%) were called active. Inconclusive results (about 4%) are left out. No stated cut-off is given here; in the data, active means potency below about 15 µM; inconclusive means mostly about 16 µM to 33 µM; inactive means weaker than that. Some of the results follow.

The molecules below were run against Lysosomal acid glucosylceramidase (Homo sapiens) (UniProt P04062) (assay: Glucocerebrosidase). Conditions: purified enzyme, resorufin glucoside fluorescence (screen aimed at inhibitors), 20 min.
Sequence of UniProt P04062 (P04062 whole entry, looked up): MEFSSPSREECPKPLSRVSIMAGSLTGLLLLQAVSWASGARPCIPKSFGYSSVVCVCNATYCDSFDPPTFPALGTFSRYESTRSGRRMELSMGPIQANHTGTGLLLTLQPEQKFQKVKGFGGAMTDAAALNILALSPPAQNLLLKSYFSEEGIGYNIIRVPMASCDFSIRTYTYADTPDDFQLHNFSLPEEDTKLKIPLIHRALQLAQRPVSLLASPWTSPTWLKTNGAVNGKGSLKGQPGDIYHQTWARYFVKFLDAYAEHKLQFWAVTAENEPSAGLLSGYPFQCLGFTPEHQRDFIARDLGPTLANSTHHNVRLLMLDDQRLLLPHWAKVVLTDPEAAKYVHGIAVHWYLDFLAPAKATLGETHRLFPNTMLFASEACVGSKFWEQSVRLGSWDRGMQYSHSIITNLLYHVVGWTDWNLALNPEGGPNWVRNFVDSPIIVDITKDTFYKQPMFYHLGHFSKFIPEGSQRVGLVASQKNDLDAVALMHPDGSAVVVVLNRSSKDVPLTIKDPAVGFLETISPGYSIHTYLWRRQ
Outline: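 Wild-type enzyme at 0.2 nM final in 50mM citric acid/KH2PO4, 10mM sodium taurocholate, 0.01% tween-20, pH 5.9, with resorufin beta-D-glucopyranoside at 30 uM final. Compounds titrated, 20 min at RT, red fluorescence read; AC50 from titration.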
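Further: the screen sought inhibitors.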
Potency means the concentration at half of the fitted maximal effect.

Potency, inactive:
Cc1cc2c(C)nc(-c3ccccc3)nc2o1 > 76.9 µM
COc1ccc(CC(=O)N2CCN(c3ccccn3)CC2)cc1OC > 76.9 µM
COc1cc(Cl)ccc1NC(=O)COc1ccccc1C(=O)N1CCN(c2ccc(O)cc2)CC1
CCNS(=O)(=O)c1ccc(NC(=O)Nc2cccc(C(F)(F)F)c2)cc1 > 76.9 µM
Cc1cccc(C)c1NC(=O)C(NC=O)c1ccc(N(C)C)cc1 (configuration not stated) > 76.9 µM
CCN(CC)C(=O)c1cc2cc(Br)ccc2oc1=O > 76.9 µM
CCC(=O)Nc1ccc2c(c1)C(=O)N(C1CCCCC1)C2=O > 76.9 µM
CCC(=O)NC(C)c1nc2ccccc2n1C (configuration not stated) > 76.9 µM
COc1cc(C)nc(NC(=O)COc2ccc(Cl)cc2C)n1 > 76.9 µM
Cc1cc(C(=O)Cn2nnc3ccccc3c2=O)c(C)n1-c1c(C)n(C)n(-c2ccccc2)c1=O > 76.9 µM
COC(=O)Cc1cnc(NC(=O)C2C3CCC(C3)C2C(=O)O)s1 (configuration not stated) > 76.9 µM
Fc1ccccc1OCCSc1nnnn1-c1ccccc1 > 76.9 µM
CC1CCN(C(=O)c2cccc(S(=O)(=O)N3CCCCC3)c2)CC1 > 76.9 µM
N#CC(C(=O)C12CC3CC(CC(C3)C1)C2)c1nc2ccccc2[nH]1 (configuration not stated) > 76.9 µM
CC(C)N(Cc1nc(-c2ccccc2)no1)C(=O)CN1C(=O)c2ccccc2C1=O > 76.9 µM
CCCC1CCC(C(=O)Nn2c(C)nc3ccccc3c2=O)CC1 (configuration not stated) > 76.9 µM
O=C1CC2(CCCCC2)Oc2ccc(O)cc21 > 76.9 µM
O=C(O)CC(c1ccc(Cl)cc1)n1cccc1 (configuration not stated) > 76.9 µM
CCOC(=O)Cc1csc(NS(=O)(=O)c2ccc3c4c(cccc24)C(=O)N3CC)n1 > 76.9 µM
CC(C)(C)NC(=O)CSc1nnc(-c2ccncc2)n1Cc1ccccc1 > 76.9 µM
CCOC(=O)N1CCN(C(=O)c2ccccc2NC(=O)c2ccc(OC)cc2)CC1 > 76.9 µM
Cc1ccc(CCNC(=O)c2nnn(-c3cc(C)cc(C)c3)c2N)cc1 > 76.9 µM
CC(=O)c1cc(C)ccc1OC(=O)c1cccnc1 > 76.9 µM
CCN1C(=O)c2c(C)nc3ccccc3c2C1=O > 76.9 µM
COc1ccc(Nc2ncnc3c2cnn3Cc2ccccc2)cc1 > 76.9 µM
CCOC(=O)c1cnc(SCC(=O)Nc2ccc3c(c2)OCCO3)nc1N > 76.9 µM
CCN(CCNC(=O)C1CC(=O)N(CCc2ccccc2)C1)c1ccccc1 (configuration not stated) > 76.9 µM
O=C(c1cccc(COCC(F)(F)C(F)F)c1)N1CCN(c2ccccc2)CC1 > 76.9 µM
COc1cc(Cl)cc(C#N)c1OCC(=O)O > 76.9 µM
CCOC(=O)c1[nH]cnc1C(=O)Nc1ccncc1 > 76.9 µM
Cc1ccc(S(=O)(=O)N2CCCC2C(=O)N2CCCCCC2)cc1 (configuration not stated) > 76.9 µM
CCCOc1ccc(C2C(C#N)=C(N)Oc3nc[nH]c(=O)c32)cc1OC (configuration not stated) > 76.9 µM
CCOC(=O)C1CCN(C(=O)Nc2ccc3nc(C)c(C)nc3c2)CC1
CN(C)S(=O)(=O)N1CCCN(S(=O)(=O)N(C)C)CC1 > 76.9 µM
Cc1ccc2nsnc2c1S(=O)(=O)NCc1cccnc1 > 76.9 µM
COc1cccc(OCC(O)CN2CCN(CCO)CC2)c1 (configuration not stated) > 76.9 µM
CCn1nc(C(=O)OCC(=O)NCCN2C(=O)CSC2=O)c2ccccc2c1=O > 76.9 µM
Cc1cc(Cl)c(S(=O)(=O)Nc2ccon2)cc1OCC(=O)NC1CCCCC1 > 76.9 µM
Cc1[nH]nc2c1C(Cc1ccccc1)C(C#N)=C(N)O2 (configuration not stated) > 76.9 µM
O=c1c2cccnc2[nH]c(=S)n1CCCN1CCN(c2ccc(F)cc2)CC1 > 76.9 µM
COc1ccc(C(C)=O)cc1COC(=O)Cc1n[nH]c(=O)c2ccccc12 > 76.9 µM
N#Cc1nc(Cc2ccccc2)oc1N1CCN(c2ccccc2)CC1 > 76.9 µM
CCOC(=O)CSc1nnc(Cc2ccccc2)n1Cc1ccco1 > 76.9 µM
Cc1[nH]nc(-c2ccc(O)cc2O)c1-c1ccc(Cl)cc1 > 76.9 µM
CCOC(=O)C1CCN(C(=O)COc2ccc(S(=O)(=O)NC(C)C)cc2Cl)CC1 > 76.9 µM
CCc1noc(C)c1C(=O)Nc1ncc(C)s1 > 76.9 µM
CCN(Cc1nc2cc(OC)c(OC)cc2c(=O)[nH]1)C(=O)c1ccc(S(=O)(=O)N(C)C)cc1 > 76.9 µM
CC(=O)N1CCc2cc(S(=O)(=O)NCCC3=CCCCC3)ccc21 > 76.9 µM
CCOC(=O)C1CCN(C(=O)C2CCN(S(=O)(=O)c3c(C)noc3C)CC2)CC1 > 76.9 µM
CCOC(=O)Cc1nnc(NC(=O)CSc2ccccc2)s1 > 76.9 µM
Cc1ccc(NC(=O)COC(=O)C2CCC(=O)N2)c(S(=O)(=O)N2CCOCC2)c1 (configuration not stated) > 76.9 µM
O=C(NCc1ccccc1)N1CCC(c2nc3ccccc3[nH]2)CC1 > 76.9 µM
Cn1c(=O)c2c(-c3ccccc3)n3c4ccccc4ncc3c2n(C)c1=O > 76.9 µM
O=C(CCNC(=O)c1ccc(Br)o1)NCc1ccccn1 > 76.9 µM
CCOC(=O)Nc1sc(C)nc1-c1ccccc1 > 76.9 µM
O=C(CCN1CCc2ccccc2C1)Nc1ccc(F)cc1 > 76.9 µM
CCOc1ccccc1OCC(=O)Nc1nnc(C)s1
Cn1c(N2CCN(C(=O)NCc3ccccc3)CC2)nc2ccccc21 > 76.9 µM
O=C(CCn1c(=S)[nH]c2cc3c(cc2c1=O)OCO3)NCCN1CCCC1 > 76.9 µM
CCCCN1Cc2cc(C(=O)c3cc(F)ccc3O)cnc2NC1=O > 76.9 µM
CCn1c(=NC(=O)CSC(C)=O)sc2ccccc21 > 76.9 µM
Cc1ccc(CNC(=O)c2cn(C3CCCCC3)c(=O)c3c2c2ccccc2n3C)o1 > 76.9 µM
Cc1ccccc1-c1nnc(SCc2ccc(F)cc2)o1 > 76.9 µM
COC(=O)c1c(NC(=O)C2CCC2)sc(C(=O)N(C)C)c1C > 76.9 µM
CCCCOC(=O)c1ccc(NC(=O)c2ocnc2C)cc1 > 76.9 µM
CCCCCC(C(=O)O)C(C)CC(=O)NC1CCCCC1 (configuration not stated) > 76.9 µM
O=C(CSc1nnc(-c2ccncc2)n1-c1ccc(Cl)cc1)N1CCOCC1 > 76.9 µM
COC(=O)Cc1[nH]nc2c1C(c1c[nH]c3ccccc13)C(C#N)=C(N)O2 (configuration not stated) > 76.9 µM
COc1cccc(C(c2nnnn2CCc2ccccc2)N2CCN(c3ccccc3)CC2)c1OC (configuration not stated) > 76.9 µM
COC(=O)c1ccc(-n2nnnc2SCC(=O)Nc2ccccc2OC)cc1 > 76.9 µM
CCCCCc1nc2c(=O)[nH]c3ccccc3c2o1 > 76.9 µM
CCN(CC)S(=O)(=O)c1ccc(C(=O)NCc2nnc(SCC(=O)OC)n2C)cc1 > 76.9 µM
CCOc1cc(S(=O)(=O)Nc2ccccn2)ccc1F > 76.9 µM
CCOC(=O)c1[nH]c2ccc(Br)cc2c1NC(=O)CCN1CCCCC1 > 76.9 µM
CCOC(=O)c1cccc(NC(=O)CSc2nc3ccccc3c(=O)n2CC)c1 > 76.9 µM
CCN(CCCNC(=O)c1[nH]c(C)c(C(C)=O)c1C)c1ccccc1 > 76.9 µM
CN(CC(=O)NC1CCCCCC1)S(=O)(=O)c1ccccc1 > 76.9 µM
O=S(=O)(N1CCCCC1)N1CCN(S(=O)(=O)N2CCCCC2)CC1 > 76.9 µM
CCN(CC)C(=O)CSc1nnc(-n2nc(C)cc2C)c2ccccc12 > 76.9 µM
CCn1c(=O)cc(OCC(=O)N2CCN(C(=O)c3ccco3)CC2)c2ccccc21 > 76.9 µM
O=C(Cc1ccc(S(=O)(=O)N2CCCC2)s1)N1CCOCC1 > 76.9 µM
Cc1cc2c(cc(C(=O)O)n2C)s1 > 76.9 µM
O=C(O)C1CC=CCC1C(=O)Nc1cccc(C(=O)N2CCCCC2)c1 (configuration not stated) > 76.9 µM
COc1cc(C(C#N)N2CCOCC2)ccc1O (configuration not stated) > 76.9 µM
CCCCS(=O)(=O)/C=C\C1C2C=CC(C2)C1S(=O)(=O)CCCC (configuration not stated) > 76.9 µM
Cc1cc(C)n2nc(NCc3ccccc3)nc2n1 > 76.9 µM
O=c1[nH]c2c(n(C3CCCCC3)c1=O)CCC2 > 76.9 µM
COC(=O)c1ccccc1NC(=O)C1CCN(C(=O)c2cc(OC)cc(OC)c2)CC1 > 76.9 µM
O=C(N1CCOCC1)N1CCOCC1 > 76.9 µM
Cc1cc(S(=O)(=O)NCC(=O)O)ccc1F > 76.9 µM
O=C(Cc1cccs1)N(Cc1ccco1)C1(C(=O)NC2CCCC2)CCCCC1 > 76.9 µM
Cc1cc(C(C)c2ccccc2)c(O)c(CN2CCOCC2)c1C (configuration not stated) > 76.9 µM
